# Test results as given in the supplement of paper PMC8728848.
# This is one part of the list.
# B1: Gal 7 (Homo sapiens) (protein)
# chain: MSNVPHKSSLPEGIRPGTVLRIRGLVPPNASRFHVNLLCGEEGGSDAALHFNPRLDTSEVVFNSKEGGSWGREESGPGVPFGRGQPFEVLIIASDDGFKAVVGDAQYHHFRHRLPLARVRLVEVGGDVQLDSVRIF
# How the values were obtained:
# Test in all cases: glycan array binding signal (z-score within array); higher = stronger binding
# Conditions in all cases: glycan notation: IUPAC condensed, linker removed; mutation: R74S
# [1] = target: Fuc(a1-2)[Gal(a1-3)]Gal(b1-4)GlcNAc(b1-2)Man(a1-3)[Fuc(a1-2)[Gal(a1-3)]Gal(b1-4)GlcNAc(b1-2)Man(a1-6)]Man(b1-4)GlcNAc(b1-4)GlcNAc
# Outline: (§1)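 Glycan array data came from 3228 arrays in the Consortium for Functional Glycomics database, and only arrays with an available protein sequence were kept. Glycan names were put into IUPAC-condensed notation, and columns mapping to the same glycan were averaged. The binding signal is a within-array Z-score, averaged across arrays of one protein sequence run at different concentrations or buffers and across linkers. A negative Z-score can be read as non-binding.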
# [2] = target: Fuc(a1-2)[Gal(a1-3)]Gal(b1-4)GlcNAc(b1-2)Man(a1-3)[Fuc(a1-2)[Gal(a1-3)]Gal(b1-4)GlcNAc(b1-2)Man(a1-6)]Man(b1-4)GlcNAc(b1-4)[Fuc(a1-6)]GlcNAc
# Outline: as §1
# [3] = target: Fuc(a1-2)[Gal(a1-3)]Gal(b1-4)GlcNAc(b1-3)GalNAc
# Outline: as §1
# [4] = target: Fuc(a1-2)[Gal(a1-3)]Gal(b1-4)GlcNAc(b1-3)[Fuc(a1-2)[Gal(a1-3)]Gal(b1-4)GlcNAc(b1-6)]GalNAc
# Outline: as §1
# [5] = target: Fuc(a1-2)[Gal(a1-3)]Gal(b1-4)GlcNAc(b1-6)GalNAc
# Outline: as §1
# [6] = target: Fuc(a1-2)[Gal(a1-3)]Gal(b1-4)[Fuc(a1-3)]Glc
# Outline: as §1
# [7] = target: Fuc(a1-2)[Gal(a1-3)]Gal(b1-4)[Fuc(a1-3)]GlcNAc
# Outline: as §1
# [8] = target: Fuc(a1-2)[Gal(a1-3)]Gal(b1-4)[Fuc(a1-3)]GlcNAc(b1-3)GalNAc
# Outline: as §1
# [9] = target: Fuc(a1-2)[Gal(a1-4)]Gal(b1-4)GlcNAc
# Outline: as §1
# [10] = target: Fuc(a1-2)[GalNAc(a1-3)]Gal
# Outline: as §1
# [11] = target: Fuc(a1-2)[GalNAc(a1-3)]Gal(b1-3)GalNAc(a1-3)[Fuc(a1-2)]Gal(b1-4)GlcNAc
# Outline: as §1
# [12] = target: Fuc(a1-2)[GalNAc(a1-3)]Gal(b1-3)GalNAc(b1-3)Gal(a1-4)Gal(b1-4)Glc
# Outline: as §1
# [13] = target: Fuc(a1-2)[GalNAc(a1-3)]Gal(b1-3)GlcNAc
# Outline: as §1
# [14] = target: Fuc(a1-2)[GalNAc(a1-3)]Gal(b1-3)GlcNAc(b1-2)Man(a1-3)[Fuc(a1-2)[GalNAc(a1-3)]Gal(b1-3)GlcNAc(b1-2)Man(a1-6)]Man(b1-4)GlcNAc(b1-4)GlcNAc
# Outline: as §1
# [15] = target: Fuc(a1-2)[GalNAc(a1-3)]Gal(b1-3)GlcNAc(b1-2)Man(a1-3)[Fuc(a1-2)[GalNAc(a1-3)]Gal(b1-3)GlcNAc(b1-2)Man(a1-6)]Man(b1-4)GlcNAc(b1-4)[Fuc(a1-6)]GlcNAc
# Outline: as §1
# [16] = target: Fuc(a1-2)[GalNAc(a1-3)]Gal(b1-3)GlcNAc(b1-3)GalNAc
# Outline: as §1
# [17] = target: Fuc(a1-2)[GalNAc(a1-3)]Gal(b1-3)GlcNAc(b1-6)GalNAc
# Outline: as §1
# [18] = target: Fuc(a1-2)[GalNAc(a1-3)]Gal(b1-4)Glc
# Outline: as §1
# [19] = target: Fuc(a1-2)[GalNAc(a1-3)]Gal(b1-4)GlcNAc
# Outline: as §1
# [20] = target: Fuc(a1-2)[GalNAc(a1-3)]Gal(b1-4)GlcNAc(b1-2)Man
# Outline: as §1
# [21] = target: Fuc(a1-2)[GalNAc(a1-3)]Gal(b1-4)GlcNAc(b1-2)Man(a1-3)[Fuc(a1-2)[GalNAc(a1-3)]Gal(b1-4)GlcNAc(b1-2)Man(a1-6)]Man(b1-4)GlcNAc(b1-4)GlcNAc
# Outline: as §1
# [22] = target: Fuc(a1-2)[GalNAc(a1-3)]Gal(b1-4)GlcNAc(b1-2)Man(a1-3)[Fuc(a1-2)[GalNAc(a1-3)]Gal(b1-4)GlcNAc(b1-2)Man(a1-6)]Man(b1-4)GlcNAc(b1-4)[Fuc(a1-6)]GlcNAc
# Outline: as §1
# [23] = target: Fuc(a1-2)[GalNAc(a1-3)]Gal(b1-4)GlcNAc(b1-3)Gal(b1-4)GlcNAc
# Outline: as §1
# [24] = target: Fuc(a1-2)[GalNAc(a1-3)]Gal(b1-4)GlcNAc(b1-3)Gal(b1-4)GlcNAc(b1-3)Gal(b1-4)GlcNAc
# Outline: as §1
# [25] = target: Fuc(a1-2)[GalNAc(a1-3)]Gal(b1-4)GlcNAc(b1-3)GalNAc
# Outline: as §1
# [26] = target: Fuc(a1-2)[GalNAc(a1-3)]Gal(b1-4)GlcNAc(b1-3)[Fuc(a1-2)[GalNAc(a1-3)]Gal(b1-4)GlcNAc(b1-6)]GalNAc
# Outline: as §1
# [27] = target: Fuc(a1-2)[GalNAc(a1-3)]Gal(b1-4)GlcNAc(b1-6)GalNAc
# Outline: as §1
# [28] = target: Fuc(a1-2)[GalNAc(a1-3)]Gal(b1-4)[Fuc(a1-3)]GlcNAc
# Outline: as §1
# [29] = target: Fuc(a1-2)[GalNAc(a1-3)]Gal(b1-4)[Fuc(a1-3)]GlcNAc(b1-3)GalNAc
# Outline: as §1
# [30] = target: Fuc(a1-2)[GalNAc(a1-4)]Gal(b1-4)GlcNAc
# Outline: as §1
# [31] = target: Fuc(a1-2)[GalNAc(b1-3)]Gal
# Outline: as §1
# Fuc(a1-3)GlcNAc = target: Fuc(a1-3)GlcNAc
# Outline: as §1
# [32] = target: Fuc(a1-3)[Gal(b1-4)]Glc6S
# Outline: as §1
# [33] = target: Fuc(a1-3)[Gal(b1-4)]GlcNAc
# Outline: as §1
# [34] = target: Fuc(a1-3)[Gal(b1-4)]GlcNAc(b1-2)Man
# Outline: as §1
# [35] = target: Fuc(a1-3)[Gal(b1-4)]GlcNAc(b1-2)Man(a1-3)[Fuc(a1-3)[Gal(b1-4)]GlcNAc(b1-2)Man(a1-6)]Man(b1-4)GlcNAc(b1-4)GlcNAc
# Outline: as §1
# [36] = target: Fuc(a1-3)[Gal(b1-4)]GlcNAc(b1-2)Man(a1-3)[Fuc(a1-3)[Gal(b1-4)]GlcNAc(b1-2)Man(a1-6)]Man(b1-4)GlcNAc(b1-4)[Fuc(a1-6)]GlcNAc
# Outline: as §1
# [37] = target: Fuc(a1-3)[Gal(b1-4)]GlcNAc(b1-3)Gal(b1-3)[Fuc(a1-4)]GlcNAc
# Outline: as §1
# [38] = target: Fuc(a1-3)[Gal(b1-4)]GlcNAc(b1-3)Gal(b1-4)[Fuc(a1-3)]GlcNAc
# Outline: as §1
# [39] = target: Fuc(a1-3)[Gal(b1-4)]GlcNAc(b1-3)Gal(b1-4)[Fuc(a1-3)]GlcNAc(b1-3)Gal(b1-4)[Fuc(a1-3)]GlcNAc
# Outline: as §1
# [40] = target: Fuc(a1-3)[Gal(b1-4)]GlcNAc(b1-3)GalNAc
# Outline: as §1
# [41] = target: Fuc(a1-3)[Gal(b1-4)]GlcNAc(b1-6)GalNAc
# Outline: as §1
# [42] = target: Fuc(a1-3)[Gal(b1-4)]GlcNAc(b1-6)[Gal(b1-3)GlcNAc(b1-3)]Gal(b1-4)Glc
# Outline: as §1
# [43] = target: Fuc(a1-3)[Gal(b1-4)]GlcNAc6S
# Outline: as §1
# [44] = target: Fuc(a1-3)[Gal3S(b1-4)]Glc
# Outline: as §1
binder,measurement,setting,value
B1,glycan array binding signal (z-score),[1],-0.33
same,glycan array binding signal (z-score),[2],-0.124
same,glycan array binding signal (z-score),[3],-0.532
same,glycan array binding signal (z-score),[4],-0.371
same,glycan array binding signal (z-score),[5],-0.105
same,glycan array binding signal (z-score),[6],-0.349
same,glycan array binding signal (z-score),[7],0.045
same,glycan array binding signal (z-score),[8],-0.461
same,glycan array binding signal (z-score),[9],-0.289
same,glycan array binding signal (z-score),[10],-0.388
same,glycan array binding signal (z-score),[11],-0.542
same,glycan array binding signal (z-score),[12],-0.104
same,glycan array binding signal (z-score),[13],-0.01
same,glycan array binding signal (z-score),[14],-0.27
same,glycan array binding signal (z-score),[15],-0.352
same,glycan array binding signal (z-score),[16],0.093
same,glycan array binding signal (z-score),[17],-0.444
same,glycan array binding signal (z-score),[18],-0.228
same,glycan array binding signal (z-score),[19],-0.307
same,glycan array binding signal (z-score),[20],-0.473
same,glycan array binding signal (z-score),[21],-0.5
same,glycan array binding signal (z-score),[22],-0.12
same,glycan array binding signal (z-score),[23],-0.309
same,glycan array binding signal (z-score),[24],-0.239
same,glycan array binding signal (z-score),[25],-0.503
same,glycan array binding signal (z-score),[26],-0.447
same,glycan array binding signal (z-score),[27],-0.44
same,glycan array binding signal (z-score),[28],-0.451
same,glycan array binding signal (z-score),[29],0.514
same,glycan array binding signal (z-score),[30],-0.094
same,glycan array binding signal (z-score),[31],0.008
same,glycan array binding signal (z-score),Fuc(a1-3)GlcNAc,-0.382
same,glycan array binding signal (z-score),[32],1.23
same,glycan array binding signal (z-score),[33],-0.151
same,glycan array binding signal (z-score),[34],0.269
same,glycan array binding signal (z-score),[35],-0.808
same,glycan array binding signal (z-score),[36],0.63
same,glycan array binding signal (z-score),[37],0.23
same,glycan array binding signal (z-score),[38],0.555
same,glycan array binding signal (z-score),[39],-0.321
same,glycan array binding signal (z-score),[40],-0.359
same,glycan array binding signal (z-score),[41],0.614
same,glycan array binding signal (z-score),[42],0.106
same,glycan array binding signal (z-score),[43],0.188
same,glycan array binding signal (z-score),[44],0.388
